# Measurements as given in PubChem BioAssay AID588342 (National Center for Advancing Translational Sciences (NCATS), 2011).
# Out of some 360,000 compounds screened, about 25,000 (6.9%) were called active. Inconclusive means that the source gave no clear call. Such entries were picked first, then a sample of the others. The call rests on the fitted dose curve; in most records, active means well fitted inhibition curve with a large enough effect; inconclusive means small, poorly fitted or top-dose-only effect; inactive means flat fitted curve, though single readings scatter. Potencies of inconclusive entries are doubtful fits and often do not repeat.
# Molecular target: Luciferin 4-monooxygenase (Photinus pyralis) (UniProt P08659)
# UniProt P08659, sequence (P08659 whole entry, looked up): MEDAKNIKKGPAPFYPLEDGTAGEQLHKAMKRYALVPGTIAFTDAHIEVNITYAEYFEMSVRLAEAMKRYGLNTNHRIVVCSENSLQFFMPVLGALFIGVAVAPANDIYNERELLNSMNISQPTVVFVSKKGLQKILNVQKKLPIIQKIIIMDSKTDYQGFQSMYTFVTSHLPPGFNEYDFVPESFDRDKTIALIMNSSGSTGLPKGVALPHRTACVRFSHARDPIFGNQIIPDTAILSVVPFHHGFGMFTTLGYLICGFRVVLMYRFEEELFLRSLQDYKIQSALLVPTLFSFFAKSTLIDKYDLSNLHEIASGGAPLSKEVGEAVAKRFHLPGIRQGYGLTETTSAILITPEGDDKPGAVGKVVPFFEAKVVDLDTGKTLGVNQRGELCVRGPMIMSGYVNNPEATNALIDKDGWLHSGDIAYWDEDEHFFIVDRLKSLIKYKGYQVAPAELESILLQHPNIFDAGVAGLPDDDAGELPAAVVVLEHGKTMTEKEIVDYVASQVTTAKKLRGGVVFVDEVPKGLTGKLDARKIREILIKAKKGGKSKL
# Test: qHTS profiling assay for firefly luciferase inhibitor/activator using purifed enzyme and Km concentrations of substrates (counterscreen for miR-21 project); further: nearly all actives have a fitted effect of over 55% in size
# Conditions: purified FLuc, luminescence inhibition; series mostly up to 57.5 µM
# Method in brief: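 Purified P. pyralis luciferase (10nM final) with 10uM D-luciferin and 10uM ATP (Km levels) in 50mM Tris acetate pH 7.5, 10mM Mg acetate, 0.01% Tween-20, 0.05% BSA; qHTS 6-point titration, ~60 µM downward; luminescence read.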
# Potency means the concentration at half of the fitted maximal effect; tags describe the fitted curve by direction and shape.
row,SMILES,Potency
1,CC1=C(CC(=O)c2ccc(Cl)cc2)C(=O)c2ccccc2C1=O,"inconclusive: 19 µM [inhibitor, partial curve, poor fit]"
2,CCC(CC)C(=O)Nc1ccc(OCc2cc(=O)n3c4c(sc3n2)CCCC4)cc1,inactive
3,Cc1ccc(F)c(NC(=O)c2ccc(Cn3cc(Cl)cn3)cc2)c1,"inconclusive: 26.9 µM [inhibitor, partial curve, poor fit]"
4,CCN(CC)c1ccc(/C=N/NC(=O)c2ccoc2C)cc1,active: 1.07 µM
5,Cc1nc2c(-c3ccc(F)cc3)cnn2c(N)c1-c1ccccc1,active: 0.239 µM
6,CSc1ncccc1C(=O)OCC(=O)c1ccccc1Br,active: 8.49 µM
7,Cc1nc2c(-c3ccc(Cl)cc3)c(C)[nH]n2c(=O)c1Cc1ccccc1,"inconclusive: 37.9 µM [inhibitor, partial curve, poor fit]"
8,O=C(N/N=C/c1ccncc1)c1cc2ccccc2o1,active: 21.3 µM
9,N#C/C(N=Nc1ccccc1O)=N\Nc1ccccc1O,"inconclusive: 21.3 µM [inhibitor, single point]"
10,O=C(Nc1nncs1)c1cccc(S(=O)(=O)N2CCc3ccccc32)c1,"inconclusive: 19 µM [inhibitor, partial curve]"
11,N#Cc1c(NC(=O)c2cnn3cccnc23)sc2c1CCCC2,"inconclusive: 1.69 µM [inhibitor, partial curve, poor fit]"
12,C/C(=N\Nc1cc(C)nc(NCc2ccccc2)n1)c1cccc([N+](=O)[O-])c1,active: 12 µM
13,COc1ccc(NS(=O)(=O)c2cccc(NC(=O)c3cnccn3)c2)cc1Br,inactive
14,CC(=O)c1ccc(S(=O)(=O)Nc2cccc(-c3ccc(N4CCOCC4)nn3)c2)cc1,active: 2.69 µM
15,OCCCNc1c2c(nc3cc(-c4ccc(Cl)cc4)nn13)CCC2,active: 12 µM
16,C/C(=N\NC(=O)c1cccc([N+](=O)[O-])c1)c1cccs1,"inconclusive: 23.9 µM [inhibitor, single point]"
17,COc1ccccc1N(Cc1ccccc1)S(=O)(=O)c1cccc(C(=O)Nc2ncccc2C)c1,inactive
18,Cc1ccc(NC(=O)COc2ccc3c(c2)OCO3)c(C)c1,"inconclusive: 16.9 µM [inhibitor, partial curve]"
19,N#CCCSCc1ccc2oc(C(=O)O)cc2c1,"inconclusive: 26.9 µM [inhibitor, partial curve, poor fit]"
20,O=C(Nc1cc2c(cc1Br)OCCCO2)c1cccnc1,"inconclusive: 26.9 µM [inhibitor, partial curve, poor fit]"
21,CCc1ccc(-c2cn3c(n2)sc2cc(C(=O)NC4CCCCCC4)ccc23)cc1,inactive
22,O=C(NC1CC1)C1CCN(c2ncnc3c2sc2cccc(F)c23)CC1,"inconclusive: 37.9 µM [inhibitor, single point]"
23,Cc1cc(C)nc(Nc2n[nH]c(-c3ccccc3N)n2)n1,active: 0.953 µM
24,Cn1cnnc1SCc1ccc(C(=O)N=Nc2c(O)n(Cc3ccc(Cl)cc3)c3ccccc23)cc1,"inconclusive: 9.53 µM [inhibitor, partial curve, poor fit]"

row,SMILES,Potency
1,O=C(Cn1cnc2c(cnn2-c2ccccc2)c1=O)Nc1cc(S(=O)(=O)N2CCOCC2)ccc1Cl,inactive
2,O=C(CN1C(=O)COc2ccc(S(=O)(=O)N3CCCCCC3)cc21)NCc1ccc(Cl)cc1,inactive
3,CC(=O)Nc1cc(C(=O)N2CCc3ccccc3C2)ccc1Sc1ccc(F)cc1,inactive
4,COc1ccc2nc(NC(=S)NC(=O)c3ccco3)sc2c1,active: 0.675 µM
5,CCCCOc1ccc(C(=O)Oc2cccnc2)cc1,"inconclusive: 23.9 µM [inhibitor, single point]"
6,CCSc1nsc(NC(=O)Nc2ccc(F)cc2F)n1,active: 5.36 µM
7,O=C(NCCN1CCCOC1=O)C(=O)NCCN1CCCOC1=O,inactive
8,CC(C)c1ccc(NC(=O)c2ccc(NS(C)(=O)=O)cc2)cc1,active: 6.75 µM
9,COc1ccc(OCc2cn3c(C)cc(C)nc3n2)cc1,"inconclusive: 26.9 µM [inhibitor, single point]"
10,O=C(CSc1nnc(-c2c[nH]c3ccccc23)o1)N1CCCCC1,"inconclusive: 26.9 µM [inhibitor, single point]"
11,CN(C)S(=O)(=O)Nc1ccc2c(c1)Cc1ccccc1-2,active: 26.9 µM
12,Cc1cc(C(=O)N/N=C/c2cccc([N+](=O)[O-])c2)c(C)o1,"inconclusive: 9.53 µM [inhibitor, partial curve]"
13,Cc1nn(Cc2ccccc2Cl)c(C)c1NC(=O)c1noc2c1CCCCC2,"inconclusive: 26.9 µM [inhibitor, single point]"
14,O=C(C#Cc1ccccc1)NCc1ccccc1F,"inconclusive: 33.8 µM [inhibitor, single point]"
15,O=C(COC(=O)c1cn(-c2ccccc2)nc1-c1ccccc1)Nc1ncc(Cl)cc1Cl,"inconclusive: 37.9 µM [inhibitor, partial curve, poor fit]"
16,CCc1sc(C(=O)NCc2ccccc2)cc1C,"inconclusive: 30.1 µM [inhibitor, partial curve, poor fit]"
17,CCOC(=O)N/N=C/c1ccc(N(CC)CC)cc1O,active: 23.9 µM
18,Cc1ccc(NC(=S)NC(=O)C2CC2)cc1Cl,"inconclusive: 30.1 µM [inhibitor, single point]"
19,O=C(NC1CCCCCC1)c1cccnc1Sc1ccccc1,inactive
20,CCOc1ccc(C(=O)N[C@H](C(=O)Nc2ccccc2OC)C(C)C)cc1,inactive
21,CCOC(=O)C1=C(CSc2nc(CC)c(C)cc2C#N)OC(N)=C(C#N)C1c1ccc(OC)cc1 (stereo not drawn),"inconclusive: 21.3 µM [inhibitor, partial curve]"
22,CC(C)C(OC(=O)c1cc2c(s1)CCCCC2)C(=O)NC(N)=O (stereo not drawn),"inconclusive: 6.75 µM [inhibitor, partial curve]"
23,COCCNC(=O)/C(C#N)=C/c1ccc2c(c1)OCO2,"inconclusive: 26.9 µM [inhibitor, partial curve, poor fit]"
24,O=C(c1ccc(F)cc1)[C@@H]1[C@@H](C(=O)c2ccccc2)[C@@]2(C(=O)Nc3ccccc32)[C@H]2c3ccccc3C=CN12,"inconclusive: 37.9 µM [inhibitor, partial curve, poor fit]"
